# Results published in the RNAGym collection of RNA variant scans (doi:10.7554/elife.90254).
# Read counts are not given, so values of variants with three or more changes are uncertain.
# B1: LINE1-mini (parent)
# chain: GGCAGAGCUCAACACAGCGUGGCAAAGUGGCUGUGGCUAGACUGCC
# Variants of: B1
# Test: self-cleavage, relative activity (ratio to wild type); higher = more cleavage; in vitro, sequencing; the parent is a self-cleaving ribozyme
row,Variant,self-cleavage
1,GGCAGAGCUCAACUCAGCGUGGCACAGUGGUAGUGGCUAGCCUGCC,0.02
2,GGCAGAGCUCAACACAGCGCGGCAAAGGGAGUGUGGCUCGACUGCC,0.01
3,GGCAGAGCUUAAUACAGCAUGGCAAAGUGGCUGUUGCUAGACUGCC,0.06
4,GGCAGAGCCCAACACAGCGUGGCAAUCUGGCUGUGGCUAGACUGCC,0.05
5,GACAGAGCUCAACACAGCGUGGCCAAAUGGCUGUGGCUAUACUGCC,0.11
6,GGCAAAGCUCACCACAGCGUGGCAAUUUGGCUGUGGCUAGACUGCC,0
7,GGCAGAGCUCUACACAGUGUGACAAAGUGGCUGUGGCUAGACUGCC,0.26
8,GGGAGAGCUCAACACAGCUAGGCAAAGUGGCUGUGGCUUGACUGCC,0.04
9,GGCAGAGUUUUACACAGCGUGGCAAAGUGGCCGUGGCUAGACUGCC,0.02
10,GGCAGAGCUCAACACACCCUGGCAGAGUGGCUGUGGCUAGACUGCC,0.58
11,GGCAGAGCUCAUAACAGCGUCGCGAAGUGGCUGUGGCUAGACUGCC,0.05
12,GGCAGAGCUCCACACGGAGUCGCAAAGUGGCUGUGGCUAGACUGCC,0.03
13,GGCAGAGCUCAAGACAGCGUGACAAAGUGGCUCUAGCUAGACUGCC,0.01
14,GCCAGAGCUCAACACAGCGUGGCUAAUUGGCUGUGGCUAGACUGCC,0.09
15,GGCAGGGCUCAACACAGCGUGGCAAAGUGGCUGUGUGUAGACUGCC,0
16,CGCAGAGCUCAACACAGCUUCGCAAAGUGGCUGAGGCUAGACUGCC,0.01
17,GGCAGACCGCAACACAGCGUUGCAAAGUGGCUGUGGCUAGACUUCC,0.03
18,GGCAAAGCUAAACACAGCGUGGCAACGUUGUUGUGGCUAGACUGCC,0.03
19,GGCAGAGCUCAAAACAGUGUCGCAAAGUGGCUGUGGCUAAAGUGCC,0.06

row,Variant,self-cleavage
1,GGCAGAGCUAAAGACAGCGUGGCGAAGUGGCUGUGGCUAGAGUGCC,0
2,GGCAGAGCUCAACCCAGCGUGACAAACUGGCUGUGGCUAGAUUGCC,0.01
3,GACAGAGCUCAACACAGCGUGGCAAAGCGGCUGGGGCUAGACUGCG,0.15
4,GGCAGGGCUCAACACAGCGUGGCAACGUGGCUGUGGCUAGACUUCC,0.07
5,GGCGCAGCUCAACACAGCGUGGCAAAGUGGCUGUGGCUAGCCUGCC,0.04
6,GGCAGAUCUCAACACAGCGUGGCAAACUGGUUGUGGCUACACAGCC,0.47
7,GACAGAGAUCAAUACAGCGUGGCAAAGUAGCUGUCGUUAGACUGCU,0.22
8,GGCAGCGCUCAACACAACGUGGAGAAGUGGCUGUGCCUAGACAUCC,0
9,AGCAGAGAUCAACACAGCGUGGCAAAGUCGCUGUGGCGAGACUGCC,0.06
10,GCCAGAGCUAAACACAGCGUGGCAAAUUGGCUGUGGCUAGAGUGCC,0.05
11,GGCAGAGCUCGACACAGCGUGGCAUAGUUGCUGUGUCUAGACUGCU,0.02
12,GGCAGAGCUCAACUCCGCGUGGCAAAGUGGAUGUGGGUAGAGUGCC,0.01
13,GGUAUAGCUCAACACAGCGUGUCAAAGUGGCUGUGGCUAAACUGCC,0.07
14,GGCAGGGCUCAACGCAGCGUGUCAAAGUGGCUGUGGCUAGACUGCC,0.07
15,GGCAGAUCUCAACACAGCGUUGCAAACUGGCUGUGGCUAGACUACC,0.03
16,GGCAGAGCUCAACGUAGAGUGGCAAAGUGGCUGUGGCUAGACUGCC,0
17,UGCAGAGCUCAACCCCGCGUGGCAAAGUGGCUGUGGCUAGACAGCC,0
18,GGCAGAACUCAACACAGCGUGGCAAAGUCGCUGUGGCUAGACCGCA,0.07
19,GGCAUAGCUUAACACAGCGUGGCAAAGUGGCUCUGGCUAGACCGCC,0.01

row,Variant,self-cleavage
1,GGCAGAGCUCAACACAGCGUGUCAUAGUGGCUGUGGCUGGACUGCC,0.06
2,GGCAGAGCUCAACACAGCGUGGCAAAGUGGCUAUGCCUGGACUGCC,0.08
3,UACAGAGCUCAACACAGCGUGGCACAGUGGCUAUGGCUAGACUGCC,0.14
4,GGCAGAGCUCAACAAAGCGUGGCUAAGUGGCUGUGGCUAGAUUGCC,0.01
5,GGCAGAACUCAUCACAGCGUGGCAAAUUGGCUGUGGCUAGACUCCC,0.08
6,GGCAGAGCUCAACACAUCGUGGCCAAGUGGCUGUGGCUAGCCUGCC,0.04
7,GGCAGAGCUGAACACAGCGUCGCAAAGCGGUUGUGGCUAGACUUCC,0.02
8,GGCAGAGAUGAACACAUAGUGGCAAUGUGGCUGUGCCUAGACUGUC,0.01
9,GACAGAGCUCAACACGGACCGGCCAAGUGGCUGUGCCUAGACUGGC,0.01
10,GGCAGAGGUCGACACAGCGUGGGAAAGUGGCUGUGGCUAGACUGCC,0
11,GGCAUAGUUCAACACAGCGUGGCAUAGUGGCUGUGGCUAGACUGCC,0.11
12,GGGAGAGCUCAACUCAGCGUGGCAAAGUGGCUAUGGCUGGACUGCC,0.41
13,GGCAGAGCUUAACACAGCGUGGCAAAAUGGCUGUGGCUAGACUACC,0.09
14,AGCAGAGCUGAACACAGCGUGGUAAAGUGGCUGUGGCUAGACUGCC,1.12
15,GGCAGAGCUAAACACAGCGUGGCAAAGUGGCGGAGGCUAGACUGCC,0.01
16,GGGAGAGCUCAACACAGCGUGGCAAAAGGGCUGUCGCUAGUCUGAC,0
17,GGCAGAGCUCAACAAAGCGUGUCAAAGUGGCUGUGGCUAGACUGCG,0.03
18,GGCAGAGCUCAACACUGCGACGCAAAGUGGCUGUGGCUAGACUGCC,0.2
